In paper PMC4336329 (PLoS ONE, 2015):
In all, about 310,000 compounds went through this assay and about 14,000 (4.5%) showed an effect of 50% or more. The effect is printed as a negative number. This is one part of the list.

Target: human ether-à-go-go-related gene (hERG) potassium channel (human, UniProt Q12809)
Assay: primary screen, population patch clamp on CHO cells stably expressing hERG
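Note: peak tail current of the secondary pulse compared with the same well before compound.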

Sequence of human ether-à-go-go-related gene (hERG) potassium channel (Q12809 whole entry, looked up): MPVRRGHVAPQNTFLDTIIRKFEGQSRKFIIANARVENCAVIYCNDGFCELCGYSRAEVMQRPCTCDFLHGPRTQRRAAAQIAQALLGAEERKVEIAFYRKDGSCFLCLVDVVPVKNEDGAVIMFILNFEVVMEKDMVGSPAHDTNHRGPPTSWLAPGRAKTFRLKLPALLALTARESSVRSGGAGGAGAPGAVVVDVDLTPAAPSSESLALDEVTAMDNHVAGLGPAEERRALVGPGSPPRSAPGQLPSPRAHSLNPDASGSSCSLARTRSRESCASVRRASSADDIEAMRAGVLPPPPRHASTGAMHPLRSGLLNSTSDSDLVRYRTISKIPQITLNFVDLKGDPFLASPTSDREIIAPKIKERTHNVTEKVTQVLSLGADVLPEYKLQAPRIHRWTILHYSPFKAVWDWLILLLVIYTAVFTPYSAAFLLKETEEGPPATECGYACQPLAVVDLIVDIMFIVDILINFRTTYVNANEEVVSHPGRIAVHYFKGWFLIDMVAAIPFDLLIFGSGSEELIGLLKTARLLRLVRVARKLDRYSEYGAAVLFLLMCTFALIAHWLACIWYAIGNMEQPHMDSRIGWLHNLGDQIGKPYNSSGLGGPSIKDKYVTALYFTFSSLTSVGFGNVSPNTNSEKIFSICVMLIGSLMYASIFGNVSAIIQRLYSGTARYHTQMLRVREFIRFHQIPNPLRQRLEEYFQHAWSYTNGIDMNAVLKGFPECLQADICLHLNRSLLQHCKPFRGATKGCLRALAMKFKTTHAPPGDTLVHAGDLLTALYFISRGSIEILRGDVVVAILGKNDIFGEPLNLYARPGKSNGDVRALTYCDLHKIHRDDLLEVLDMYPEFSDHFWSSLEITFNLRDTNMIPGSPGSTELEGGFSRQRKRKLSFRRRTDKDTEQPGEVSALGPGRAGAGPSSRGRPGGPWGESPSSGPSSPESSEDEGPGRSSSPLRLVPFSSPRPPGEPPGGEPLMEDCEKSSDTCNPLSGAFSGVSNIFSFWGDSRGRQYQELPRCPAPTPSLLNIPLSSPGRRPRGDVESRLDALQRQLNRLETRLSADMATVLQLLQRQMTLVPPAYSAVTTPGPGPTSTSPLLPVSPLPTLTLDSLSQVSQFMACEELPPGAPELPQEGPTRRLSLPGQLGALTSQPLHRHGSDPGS

| SMILES | hERG current change (%, negative = inhibition) at 10uM [%] |
| --- | --- |
| COC(=O)c1c(-c2ccc(OC)cc2)oc2ccccc12 | 8.9 |
| CCOC(=O)C1=C(COc2ccccc2)NC(=O)NC1c1ccc(Br)cc1 (stereo not shown) | 10.4 |
| O=C(COc1ccccc1-c1ccccc1)N/N=C/c1ccccn1 | -4.97 |
| CC(Sc1nnc(Cc2cccs2)n1C1CCCCC1)C(=O)N1CCc2ccccc21 (stereo not shown) | -31.2 |
| COc1cc(NC(=O)COC(=O)/C=C/c2ccc(O)c(OC)c2)cc(OC)c1 | 14.2 |
| c1ccc(-c2csc(Nc3cccnc3)n2)cc1 | 3.51 |
| N#CC1=C(N)N(c2ncn[nH]2)C2=C(C(=O)CCC2)C1c1ccccc1 (stereo not shown) | 19.3 |
| O=C(COc1ccc(-n2ccnc2)cc1)Nc1cccc(F)c1 | -54.6 |
| Cc1cc(F)ccc1S(=O)(=O)N1CCCOC1CNC(=O)C(=O)NCc1ccc2c(c1)OCO2 (stereo not shown) | -26.9 |
| O=C(CCSc1nc2cc(Cl)ccc2o1)N1CCOCC1 | -9.91 |
| NS(=O)(=O)c1ccc(CCNC(=O)COC(=O)CCc2ccccc2)cc1 | 14.8 |
| Cc1cccc(NC(=O)CN2C(=O)N/C(=C\c3ccccc3OCc3ccc(C(=O)O)cc3)C2=O)c1 | 18.4 |
| CCc1ccccc1NC(=O)CNC(=O)c1cc(C2CC2)nc2c1cnn2C(C)C | -13.8 |
| O=c1n(S(=O)(=O)c2cccc3cccnc23)c2ccccc2n1S(=O)(=O)c1cccc2cccnc12 | 11.5 |
| Cc1cc(NC(=O)CSC2=NS(=O)(=O)c3cc(Cl)ccc3N2)no1 | 18.5 |
| O=C(Nc1ccon1)c1cccc(Cl)c1 | 7.02 |
| CCOc1ccc(=O)n(-c2ccccc2)n1 | 5.75 |
| COc1ccc(-c2ccc(=O)n(Cc3ccccc3)n2)cc1 | -5.74 |
| O=C1Cc2ccccc2Sc2ccc(Cl)cc21 | 16 |
| O=C1N[C@@H](Cc2ccccc2)C(=O)N2[C@H]1C[C@]1(Br)c3ccccc3N(S(=O)(=O)c3ccc(F)cc3)[C@H]21 | -5.36 |
| COCC1=C(C(=O)OC)C(c2ccco2)n2ncnc2N1 (stereo not shown) | 18 |
| CSCCC(=O)NC1CC(C)(C)Cc2c1cnn2-c1ccccc1C (stereo not shown) | -10.4 |

| SMILES | hERG current change (%, negative = inhibition) at 10uM [%] |
| --- | --- |
| CC(C)CN(CC(C)C)c1ccc(/C=N/n2cnnc2)cc1[N+](=O)[O-] | -21.6 |
| CCOc1ccc(CCNC(=O)COC(=O)CCC(=O)c2cccs2)cc1OCC | -17.6 |
| O=C(O)CCc1ccc(-c2ccccc2)n1Cc1ccco1 | 2.33 |
| Cl.O=C(CS(=O)CC(=O)Nc1cnc2ccccc2c1)Nc1ccc(Cl)cc1 (stereo not shown) | -10.5 |
| O=C(Nc1ccccc1-c1ccccc1)C(c1ccccc1)c1ccccc1 | 10.4 |
| Cc1cc(C)nc(S/C=C/C(=O)c2ccccc2F)n1 | 5.02 |
| O=C(c1ccc(Br)o1)N1CCN(c2ccccc2F)CC1 | -4.94 |
| COc1ccc(/C=N/n2cnc3scc(-c4cccs4)c3c2=O)cc1OC | -2.04 |
| CCOc1ccc2nc(NCCO)[nH]c2c1 | 5.38 |
| COc1ccc(NC(=S)N2C3CCC2CC(NC(=O)NC24CC5CC(CC(C5)C2)C4)C3)c(OC)c1 (stereo not shown) | 6.69 |
| CCCN1Cc2cccc(C(=O)NCc3ccccc3)c2C1=O | -34.9 |
| COc1ccccc1C(CC(=O)Nc1ccc(C)c(C)c1)c1ccc(OC(C)C)cc1 (stereo not shown) | 10.2 |
| CN(C)S(=O)(=O)c1ccc(N2CCCC2)c(C(=O)NNC(=O)COc2ccccc2Cl)c1 | -30.3 |
| COc1ccc(CN(CC2CCC(C(=O)O)CC2)C(=S)Nc2cc(C)cc(C)c2)cc1 (stereo not shown) | 19.6 |
| N#CCCN(C(=O)COC(=O)c1ccc2c(c1)OCO2)c1ccccc1 | -17 |
| Cc1cccc(C)c1NC(=O)CN(C)C(=O)CN1C(=O)NC(C)(C)C1=O | 5.63 |
| COc1cccc(CNc2nc3ccc(C)cc3n3cnnc23)c1 | 4.33 |
| c1ccc2c(c1)CCc1ccccc1C2=C1CCNCC1 | 8.87 |
| C=C(C)CN(CC)Cc1c(C(=O)N(C)CCCC)nc2ccccn12 | -20.7 |
| Cc1ccc(C)c(-n2c(SCC(=O)Nc3nonc3C)nnc2-c2ccoc2C)c1 | -61.2 |
| Cc1ccc2nc(N(CCCN(C)C)C(=O)CCc3ccccc3)sc2c1.Cl | -66 |
